In patent publication US20250051476A1 (ABDERA THERAPEUTICS, published 2025):

T1: human DLL3 on cells (human, UniProt Q9NYJ7 27-618)
T1 sequence (looked up): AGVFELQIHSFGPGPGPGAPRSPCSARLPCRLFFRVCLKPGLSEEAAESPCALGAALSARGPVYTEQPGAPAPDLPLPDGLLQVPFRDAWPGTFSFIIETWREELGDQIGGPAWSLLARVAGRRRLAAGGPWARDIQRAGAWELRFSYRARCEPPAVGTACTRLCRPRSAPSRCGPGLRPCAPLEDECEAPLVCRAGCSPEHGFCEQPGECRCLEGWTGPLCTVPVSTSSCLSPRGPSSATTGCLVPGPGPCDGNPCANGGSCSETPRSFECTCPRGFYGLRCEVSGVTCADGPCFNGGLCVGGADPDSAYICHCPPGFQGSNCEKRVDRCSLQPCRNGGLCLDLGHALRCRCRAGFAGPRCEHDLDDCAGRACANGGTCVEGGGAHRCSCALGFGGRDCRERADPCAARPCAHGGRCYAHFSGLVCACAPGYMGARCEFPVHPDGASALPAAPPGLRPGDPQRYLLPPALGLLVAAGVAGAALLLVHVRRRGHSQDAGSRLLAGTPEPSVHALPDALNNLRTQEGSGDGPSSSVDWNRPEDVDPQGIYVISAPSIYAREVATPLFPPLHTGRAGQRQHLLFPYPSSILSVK


target: T1, human DLL3 on cells; assay: cell-based or functional assay

HEK-DLL3 Internalization FOI | Binder
8.78 FOI | Clone 100 VHH-Fc (wildtype Fc/modified hinge) (Fc fusion) QVQLVESGGGSVQPGGSLRLSCAASGIVFNSDVMGWYRQVPGKPRELVATITGGGSTNYATSVKGRFTISRDNAKNTVYLQMNSLRPEDTAVYYCNGRRGDSMLAFWAQGTQVTVSS[human IgG1 Fc with C220S (EU numbers) not written out]
7.56 FOI | Clone 126 VHH-Fc (wildtype Fc/modified hinge) (Fc fusion) QVQLVESGGGMVQPGGSLRLSCAASGITFSMYSMSWYRQPPGKQRELVAATTTFGSTNYADSVKGRFTISRDNAKNTVYLQMNSLKPEDTAVYLCNARFTSEEYWGQGTQVTVSS[human IgG1 Fc with C220S (EU numbers) not written out]
6.67 FOI | Clone 24 VHH-Fc (wildtype Fc/modified hinge) (Fc fusion) QVQYVESGGGLVQPGGSLRLSCAASGFTFSSYRINWYRQPPGKGRELVGSITDTGSTNYADSVKGRFTISRDNAKNTVYLQMSSLKPEDTAVYYCRAPTIAAYWGQGTQVTVSS[human IgG1 Fc with C220S (EU numbers) not written out]
8.14 FOI | Clone 107 VHH-Fc (wildtype Fc/modified hinge) (Fc fusion) QVQLVESGGGLVQAGDSLRLSCVASDRTFSSYAVGWFRQAPGKEREFVAAISWNGGRTLYTDSVTGRFTISRDNAKSTVYLQMNGLKPEDTAVYYCAARPAAPTRRLEYDYWGQGTQVTVSS[human IgG1 Fc with C220S (EU numbers) not written out]
7.72 FOI | Clone 186 VHH-Fc (wildtype Fc/modified hinge) (Fc fusion) QVQVVESGGGLVQPGGSLTLSCAASGFDFSTYTVNWYRQAPGKEREKVARISSTGTTTNYANSAKGRFTLSRDNAKNRVYLQMNNLKPEDTAVYFCNFERFDSNYWGQGTQVTVSS[human IgG1 Fc with C220S (EU numbers) not written out]
